Results are given in words; binding and its absence hold for the method and conditions named. In cells and extracts the contact can be indirect. Some results given as binding are weak or reduced against the parent protein; the word gives no strength.
Experiments:
[1] = target: Atphot2I (Arabidopsis thaliana) (UniProt P93025); experiment: co-IP; microsomal fractions of N. benthamiana leaves co-expressing phot2I (induced with 5 μM β-oestradiol for 12 h) and the GFP protein, leaves irradiated with strong blue light (120 μmol m^-2 s^-1) for 30 min; phot2 antibody on Protein G dynabeads, 3–4 h at 4 °C; western blot with anti-GFP
[2] = target: PHOT2–NtermGFP (Arabidopsis thaliana) (UniProt P93025); experiment: split reporter; BiFC with N- and C-terminal GFP fragments, co-expressed transiently in N. benthamiana leaves (Agrobacterium cultures mixed 1:1), confocal microscopy
[3] = target: PHOT2–CtermGFP (Arabidopsis thaliana) (UniProt P93025); experiment: as above

Chains of the proteins cited; added tags and fusions are not shown.
UniProt P93025: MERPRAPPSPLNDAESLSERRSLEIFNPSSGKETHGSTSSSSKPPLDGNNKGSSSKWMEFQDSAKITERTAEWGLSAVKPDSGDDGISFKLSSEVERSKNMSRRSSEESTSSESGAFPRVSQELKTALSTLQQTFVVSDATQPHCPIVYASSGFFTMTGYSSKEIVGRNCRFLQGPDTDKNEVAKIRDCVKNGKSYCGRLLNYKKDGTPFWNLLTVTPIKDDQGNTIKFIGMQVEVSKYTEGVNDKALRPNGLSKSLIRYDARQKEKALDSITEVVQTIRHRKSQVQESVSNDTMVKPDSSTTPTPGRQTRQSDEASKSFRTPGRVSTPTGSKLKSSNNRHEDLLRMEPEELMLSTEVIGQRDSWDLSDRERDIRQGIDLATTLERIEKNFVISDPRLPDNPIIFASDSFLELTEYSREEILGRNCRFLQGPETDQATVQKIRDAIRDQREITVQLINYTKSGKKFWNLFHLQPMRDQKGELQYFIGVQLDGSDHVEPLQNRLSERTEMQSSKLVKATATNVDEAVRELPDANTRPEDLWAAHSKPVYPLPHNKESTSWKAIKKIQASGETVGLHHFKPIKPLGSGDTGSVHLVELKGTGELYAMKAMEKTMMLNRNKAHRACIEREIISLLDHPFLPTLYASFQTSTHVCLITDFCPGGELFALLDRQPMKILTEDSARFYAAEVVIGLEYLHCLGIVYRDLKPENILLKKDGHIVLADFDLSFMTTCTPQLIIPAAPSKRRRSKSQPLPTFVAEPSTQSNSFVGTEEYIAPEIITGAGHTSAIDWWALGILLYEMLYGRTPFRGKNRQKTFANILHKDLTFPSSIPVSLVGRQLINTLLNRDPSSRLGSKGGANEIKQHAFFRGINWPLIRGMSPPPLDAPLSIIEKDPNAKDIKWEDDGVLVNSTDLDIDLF
UniProt O04209: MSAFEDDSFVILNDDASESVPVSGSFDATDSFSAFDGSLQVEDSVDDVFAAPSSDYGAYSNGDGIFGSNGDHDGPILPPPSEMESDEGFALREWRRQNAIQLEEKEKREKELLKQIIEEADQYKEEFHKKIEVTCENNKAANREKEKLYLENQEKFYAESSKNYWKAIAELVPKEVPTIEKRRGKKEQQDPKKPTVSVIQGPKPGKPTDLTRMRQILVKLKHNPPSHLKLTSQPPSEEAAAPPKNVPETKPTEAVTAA
UniProt O23140: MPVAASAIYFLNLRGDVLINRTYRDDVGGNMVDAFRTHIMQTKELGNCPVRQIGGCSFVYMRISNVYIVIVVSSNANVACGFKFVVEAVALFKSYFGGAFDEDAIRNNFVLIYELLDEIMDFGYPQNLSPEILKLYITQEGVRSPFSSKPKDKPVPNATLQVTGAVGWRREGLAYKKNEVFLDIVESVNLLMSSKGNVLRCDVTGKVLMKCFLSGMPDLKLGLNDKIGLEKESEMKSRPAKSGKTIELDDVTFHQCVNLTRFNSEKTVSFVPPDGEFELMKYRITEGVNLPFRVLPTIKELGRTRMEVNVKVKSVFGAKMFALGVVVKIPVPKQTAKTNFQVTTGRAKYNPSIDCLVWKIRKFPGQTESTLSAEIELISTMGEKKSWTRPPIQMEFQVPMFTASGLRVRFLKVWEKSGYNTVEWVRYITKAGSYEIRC

## AtCLC2–GFP (from UniProt O04209 1-258)
[1]
  binding: binds

## CLC2–CtermGFP (from UniProt O04209 1-258)
[2]
  binding: binds

## CLC2–NtermGFP (from UniProt O04209 1-258)
[3]
  binding: binds

## CtermGFP–AP2μ (from UniProt O23140 1-438)
[2]
  binding: no binding

## GFP–AP2μ (from UniProt O23140 1-438)
[1]
  binding: no binding

## NtermGFP–AP2μ (from UniProt O23140 1-438)
[3]
  binding: no binding

Source: PMC4071840
